Results taken from PubChem BioAssay AID1963576 (National Center for Advancing Translational Sciences (NCATS), 2024).
Out of some 46,000 compounds screened, about 60 (0.1%) were called active. Another 3% or so got no clear call; they are omitted. Calls follow the shape of the dose curve; as a rule, active = well fitted inhibition curve with a large enough effect; inconclusive = small, poorly fitted or top-dose-only effect; inactive = no such curve, though single readings can be large or run the other way. The list shows a part of the results.

Test: Primary qHTS assay for Inhibitors of ovarian cancer metastasis using an organotypic tumor microenvironment (TME) model. Also: nearly all actives have a fitted effect of over 65% in size.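 As to activity change, negative = inhibition: plate controls were DMSO wells for no effect and tomatine positive control wells for full effect.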
Conditions: SKOV3ip1-GFP adhesion/invasion on 3D omental model, fluorescence; series mostly up to 45.8 µM; activity change, negative = inhibition: at the top concentration
Procedure, shortened: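 Adhesion/invasion was scored as fixed GFP-labeled SKOV3ip1 cell counts (488/509 nm), normalized to DMSO and tomatine controls. Cancer cells in serum-free medium, with four compound doses (0.36-46 umol/L), sat 2 hr at RT then 16 hr at 37 C on a 48 hr fibroblast/mesothelial/ECM culture.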

Activity change, negative = inhibition, inactive:
Cc1cccc(NC(=O)c2ccc(-n3cnc4cccnc43)cc2)c1C 32.2%, Cc1ccc(N2CC(NC(=O)c3cccs3)CC2=O)cc1C (stereo unspecified) -11.4%, CCc1ccc(C(=O)c2cn(CC(=O)Nc3ccc4c(c3)OCO4)c3ccc(OC)cc3c2=O)cc1 -8.62%, Cc1ccccc1OCc1ccc(-c2nc(C#N)c(NCc3cccnc3)o2)o1 0.0086%, CCOc1cc(/C=C(\C#N)C(=O)NCC2CCCO2)ccc1O (stereo unspecified) 0.757%, CC1=C(c2ccc(C)c(C)c2)S(=O)(=O)N=C1N1CCC(C(=O)N2CCC(C)CC2)CC1 -3.18%, COc1ccc(OC)c(CNC(=O)C(C)n2c(C)c3cnn(-c4ccccc4)c(=O)c3c2C)c1 (stereo unspecified) 6.88%, CCOc1ccc(NC(=O)C2CCC(CNS(=O)(=O)c3ccc(Br)s3)CC2)cc1 (stereo unspecified) 2.76%, C[C@H]1COc2c(N3CCN(C)CC3)c(F)cc3c(=O)c(C(=O)O)cn1c23 9.46%, Cc1cccc(NC(=O)N2CCC3(CC2)Oc2ccccc2C(=O)N3Cc2ccccc2F)c1C 1.13%, CCOc1ccc(C(=O)c2oc3ccccc3c2NC(=O)Cc2coc3ccc(CC)cc23)cc1 -6.33%, COc1ccccc1NC(=O)CSc1nc(-c2ccc(C(C)(C)C)cc2)c(C#N)c(=O)[nH]1 -26.1%, CC(C)c1ccc(Nc2cc(C(=O)NC3CCCCC3)c3ccccc3n2)cc1 -4.82%, CCc1ccc2occ(CC(=O)Nc3ccccc3C(F)(F)F)c2c1 -7.99%, CCc1cccc(-n2c(=O)c3cccnc3n2CC(=O)Nc2ccc(F)c(C)c2)c1 -3.8%, COc1ccc(/C=C/C(=O)Nc2nc3n(n2)C(c2ccc(F)cc2)C=C(c2ccccc2)N3)cc1 (stereo unspecified) 11.3%, CSc1cccc(Nc2cc(C(=O)NCCCN(C)c3ccccc3)c3ccccc3n2)c1 -9.52%, CCOC(=O)c1c(-c2ccc(C)cc2)csc1NC(=O)c1cc(=O)c2ccc(C)cc2o1 -14.1%, COc1ccc(NC(=O)C2CCCN(S(=O)(=O)c3ccc(Br)s3)C2)cc1 (stereo unspecified) -14.9%, NC(CO)C(=O)NNCc1ccc(O)c(O)c1O (stereo unspecified) -8.11%, O=C(NCc1cccs1)c1ccc(CSc2nc3cccnc3n2Cc2ccccc2F)cc1 4.29%, CCc1ccc(NC(=O)Cn2c(=O)n(Cc3ccco3)c(=O)c3oc4ccccc4c32)cc1 -7.36%, COc1cccc(CNC(=O)Cc2c(C(=O)O)c(C)cn2C)c1 -1.31%, COc1ccc(CC(=O)NCC(c2cccs2)S(=O)(=O)c2ccc(C)cc2)cc1 (stereo unspecified) -0.94%, CCc1cccc(N2C(=O)CSC23C(=O)Nc2ccccc23)c1 (stereo unspecified) 26.1%, COc1ccc(S(=O)(=O)Nc2c(C)nc3nc(C)[nH]n3c2=O)cc1 0.367%, CCOC(=O)c1c(C)n(-c2ccccc2)c2ccc(OC(=O)c3cccc(OC)c3OC)cc12 1.01%, Cc1oc(-c2ccccc2Cl)nc1CSc1nc2ncccc2[nH]1 9.59%, Cc1cc(C)c(NC(=O)Cn2cnc3c(oc4ccccc43)c2=O)c(C)c1 26.1%, CCOc1ccc(CNS(=O)(=O)c2ccc3c(c2)CCCN3C(C)=O)cc1OC -17%, CCc1nnc2c(N3CCN(c4cc(Cl)ccc4C)CC3)nc3ccccc3n12 -4.85%, CCOC(=O)C1CCCN(C(=O)c2nn(-c3ccc(C)cc3)c(=O)n(C)c2=O)C1 (stereo unspecified) 3.03%, CCCN(C(=O)c1cc2c(=O)[nH]c3ccc(C)cc3c2s1)c1ccc(CC)cc1 0.981%, O=C1[C@@H]2CSC(c3ccc(Cl)cc3)N2C(=O)N1c1ccccc1 (stereo partly specified) -24.3%, COc1ccc(-c2noc(COc3cc(C)ccc3C)n2)cc1OC -6.23%, O=C(COc1ccc(F)cc1)Nc1ccc2nc(SCC(=O)N3CCOCC3)sc2c1 -4.47%, CCOc1ccc(NC(=O)CCNS(=O)(=O)c2cccc3nonc23)cc1 3.22%, COc1ccc(C2=NC(c3ccncc3)=Nc3ccc(OC)cc3N2)cc1 -5.78%, COc1ccc(-c2noc(N3CCC(C(=O)N4CCN(c5cccc(C)c5C)CC4)CC3)n2)cc1 -7.74%, COc1ccc2c(c1)c(N1CCCC1=O)c(C(=O)Nc1ccccc1C(F)(F)F)n2C 9.02%, COc1ccc(C2=C(C)C(=O)N(Cc3ccc(C(=O)NCc4cccc(C)c4)cc3)S2(=O)=O)cc1 -5.41%, CCOc1ccc(Nc2nc3cc(Cl)c(Cl)cc3nc2-n2nc(C)cc2C)cc1 17.7%, COc1ccc(Cl)cc1NC(=O)c1cn(C2CCCCC2)c(=O)c2c1c1ccccc1n2C 4.25%, COc1ccc(N2CCN(c3csc4ccc(Cl)cc4c3=O)CC2)cc1 -10.3%, COc1ccccc1CCNC(=O)C1CCN(c2nnc(-n3cccc3CNc3ccc(C)cc3)s2)CC1 -26.5%, COc1ccccc1Cn1cc(C(=O)c2ccc(C)cc2)c(=O)c2cc(C)ccc21 -10.7%, CCN(c1ccccc1)c1ccc2cc(S(=O)(=O)N3CCCC3)ccc2n1 -6.25%, Cc1cnn(C)c1C(=O)Nc1cc(Nc2ccc3c(C=Cc4ccccn4)n[nH]c3c2)ccc1F 12.9%, CCc1ccccc1Nc1nn2c(=O)c3ccc(C(=O)NCc4ccccc4OC)cc3nc2s1 -4.66%, CCOc1ccc(Nc2ncnc3c2nc2n3CCCC2)cc1 4.09%, Cc1ccc(C)c(S(=O)(=O)c2nnn3c2nc(NC(C)C)c2sccc23)c1 2.4%, O=C(O)c1ccc2nc(-c3cc4cccc(O)c4oc3=O)[nH]c2c1 -8.14%, NS(=O)(=O)c1ccc(NC(=O)CN2C(=O)COc3ccc(Cl)cc32)cc1 18.5%, COc1ccc(CNC(=O)c2cc(-c3ccc(C)cc3)nc3n[nH]c(-c4ccc(Br)cc4)c23)cc1 -15.8%, Cc1ccccc1C(=O)NC1(C(F)(F)F)N=C(c2ccccc2)N(C2CCCCC2)C1=O (stereo unspecified) 55.5%, CCOC(=O)c1oc2ccc(S(=O)(=O)n3nc(-c4cc(OC)c(OC)c(OC)c4)cc3N)cc2c1C 7.51%, CCOC(=O)CNC(=O)Nc1cc(C(=O)NCc2ccccc2OC)ccc1N1CCCC1 7.88%, CCOc1ccc(NC(=O)CSc2ccc(-c3sc(-c4ccccc4)nc3C)nn2)cc1 3.18%, CCOc1ccccc1CNC(=O)c1c(C)oc2ncnc(N3CCOCC3)c12 1.84%, COc1ccc(Cl)cc1NC(=O)C1CCCN(c2ncnc3onc(C)c23)C1 (stereo unspecified) 6.28%, CCC(Oc1ccccc1F)C(=O)N1CCC(c2nc3ccccc3s2)CC1 (stereo unspecified) 5.86%, O=C(NC(=O)c1ccccc1)Nc1ccc(-c2cc(C(F)(F)F)nn2-c2ccccc2)cc1 1.75%, COC(=O)C(CCSC)NC(=O)c1cc2c(n(-c3ccc(Cl)cc3)c1=O)CCCC2=O (stereo unspecified) 17.3%, CC(C)C(=O)Nc1ccccc1OCc1cc(=O)n2ccccc2n1 -6.45%, Cc1ccc2oc(-c3ccc(C)c(NC(=O)c4ccc(N5CCC(C)CC5)c([N+](=O)[O-])c4)c3)nc2c1 -10.6%, CCCn1c(CNC(=O)c2ccc(F)cc2)nc2ccccc21 -27.7%, Cc1cccc(NC(=O)c2cc3c(=O)n4cccc(C)c4nc3s2)c1C -14.6%, O=c1c2cc3c(cc2n(Cc2ccc(F)cc2)c(=O)n1Cc1nc(-c2ccccc2)no1)OCO3 -46.3%, COc1cc(CNC(=O)c2ccc3nc(CCc4ccccc4)oc3c2)cc(OC)c1OC 8.22%, O=C1c2c(O)cc(O)cc2O[C@H](c2cc(O)c(O)c(O)c2)[C@H]1O -2.97%, C[C@]12C=CC(=O)C=C1CC[C@@H]1[C@@H]2[C@@H](O)C[C@@]2(C)[C@@H]1CC[C@]2(O)C(=O)CO 8.91%, COc1ccc2c(c1)CCc1c(C(=O)Nc3c(C)nn(Cc4ccccc4C)c3C)noc1-2 -13.7%

outcome, inactive:
COc1cc2ccccc2cc1C(=O)Nc1ccc2oc(-c3ccc(F)cc3Cl)nc2c1, CCc1ccc(CNC(=O)c2c(C)oc3ncnc(N4CCOCC4)c23)cc1, COc1cccc(C(=O)Nc2c(C(=O)N3CCN(c4ccc(F)cc4)CC3)oc3ccccc23)c1, O=C(Cc1ccc(F)cc1)Nc1nnc2n1CCS2, CCOc1ccccc1-n1nnc(-c2nsc(NC(=O)c3ccc(C)cc3)n2)c1C, CCc1ccccc1OCC(=O)Nc1ccc(S(=O)(=O)Nc2nc(C)cc(C)n2)cc1, O=C(NCCn1ccc2ccccc21)c1ccc(Cl)cc1, COc1ccc(NC(=O)Cn2c(=O)n(Cc3nc(-c4ccccc4)no3)c(=O)c3ccccc32)cc1Cl, CC(=O)N1CCc2cc(S(=O)(=O)NC(C(=O)Nc3ccc(C)cc3C)C(C)C)ccc21 (stereo unspecified), COc1cc(C(=O)n2nc(C)c(Sc3ccc(Cl)cc3)c2C)cc(OC)c1OC, CC(C)c1ccc(NC(=O)CN2C(=O)COc3ccc(S(=O)(=O)N4CCCCCC4)cc32)cc1, O=C(NCc1cccc(Cl)c1)c1ccc2nc(N3CCCCC3)sc2c1, COc1ccccc1N1CCN(c2ncnc3onc(-c4cccc(Cl)c4)c23)CC1, CC1CCN(C(=O)c2cc(-c3ccc(Br)cc3)on2)CC1, CC(C)c1ccc(N2C(=O)CSC23C(=O)N(C)c2ccccc23)cc1 (stereo unspecified), Cc1c(C(=O)N(Cc2ccc(N(C)C)cc2)CC2CCCO2)oc2ccc(Cl)cc12 (stereo unspecified), Cc1ccc(-n2nc(CO)c(C(=O)NCCCc3ccccc3)n2)cc1C, CCOC(=O)c1c(C)[nH]c(C)c1S(=O)(=O)N1CCCC(C(=O)Nc2ccc(C)cn2)C1 (stereo unspecified), CCOc1ccc2nc(Cl)c(C3CC(c4ccc(OC)cc4)=NN3S(C)(=O)=O)cc2c1 (stereo unspecified), CCOc1ccc(NC(=O)C2CCCN(c3ccc(Sc4ccc(C)cc4)nn3)C2)cc1 (stereo unspecified), O=C(CCCN1C(=O)C(c2ccccc2)Oc2cccnc21)Nc1ccccc1C(F)(F)F (stereo unspecified), Cc1cccc(NC(=O)c2ccc3snnc3c2)c1C, COC(=O)c1c(SC)nc2ccccc2c1OCc1ccc(Cl)cc1, CCOc1ccccc1NC(=O)C(CC(C)C)NS(=O)(=O)c1ccc2c(c1)oc(=O)n2C (stereo unspecified)
